Experimental data: publication PMC9236906
Positions count from the first letter of the chain named. These are yes or no findings as the source states them, for the method shown. For some assays here: In cells and extracts the contact can be indirect. Some results given as binding are weak or reduced against the parent protein; the word gives no strength. For some assays here: Where a sequence is shown, tags or fusion partners need not be part of it. Each block holds one substance with its values, some of them ahead of it.

Chains of the proteins cited; added tags and fusions are not shown. Lines headed by an entry give the natural chain unless they say otherwise; changes in a name come on top.
UniProt P40337: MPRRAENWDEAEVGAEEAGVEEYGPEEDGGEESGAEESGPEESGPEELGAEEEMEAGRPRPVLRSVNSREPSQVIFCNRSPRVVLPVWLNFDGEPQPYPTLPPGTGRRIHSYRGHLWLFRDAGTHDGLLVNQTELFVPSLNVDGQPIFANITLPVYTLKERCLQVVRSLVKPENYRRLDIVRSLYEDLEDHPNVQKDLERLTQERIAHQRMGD

Assays:
[1] = molecular target: T1, TFAM P50A-Mutant peptide 31-70, biotinylated, after the EGLN3 hydroxylation reaction; assay: pull-down; biotinylated TFAM peptide on streptavidin agarose beads, hydroxylation reaction with IVT HA-EGLN (2 h), then IVT 35S-HA-VHL overnight at 4 °C; autoradiography; only the target purified
T1 sequence (peptide, biotinylated; subjected to hydroxylation by EGLN3 in vitro): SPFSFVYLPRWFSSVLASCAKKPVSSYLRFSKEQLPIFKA

[2] = molecular target: T2, TFAM P53/66A-double Mutant peptide 31-70, biotinylated, after the EGLN3 hydroxylation reaction; assay: as above
T2 sequence (peptide, biotinylated; subjected to hydroxylation by EGLN3 in vitro): T1 sequence (peptide, biotinylated; subjected to hydroxylation by EGLN3 in vitro) with A20P, P23A, P36A

[3] = molecular target: T3, Hydroxy-HIF2α-P-OH 531 peptide (residues 521 to 543), biotinylated; assay: pull-down; biotinylated peptides on streptavidin beads incubated with whole-cell lysates of 786-O or A498 cells expressing HA-VHL for 4 h at 4 °C; immunoblot; only the target purified
T3 sequence (peptide, hydroxyproline at 531; biotinylated): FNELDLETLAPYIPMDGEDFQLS

[4] = molecular target: T4, Hydroxy-TFAM-P-OH-53/66 peptide 31-70, biotinylated, synthesized with hydroxyprolines 53 and 66; assay: as above
T4 sequence (peptide, hydroxyproline at 53 and 66; biotinylated): T1 sequence (peptide, biotinylated; subjected to hydroxylation by EGLN3 in vitro) with A20P

[5] = molecular target: T3, Hydroxy-HIF2α-P-OH 531 peptide (residues 521 to 543), biotinylated; assay: pull-down; synthetic biotinylated hydroxylated or naïve peptides on beads, capture of IVT 35S-VHL (WT or disease mutants); autoradiography; only the target purified
[6] = molecular target: T4, Hydroxy-TFAM-P-OH-53/66 peptide 31-70, biotinylated, synthesized with hydroxyprolines 53 and 66; assay: as above
[7] = molecular target: T5, purified His-TFAM, hydroxylated by EGLN3 wild-type (UniProt Q00059); assay: pull-down; purified His-TFAM (2 μM) on His-tag Dynabeads, hydroxylation reaction with IVT EGLN3 WT or H196A, incubation with purified VHL for 2 h at room temperature, wash, then LONP1 degradation buffer; immunoblot of bound complexes; both purified
T5 sequence (chain, hydroxylated in vitro by EGLN3 wild-type (sites not mapped on this protein)): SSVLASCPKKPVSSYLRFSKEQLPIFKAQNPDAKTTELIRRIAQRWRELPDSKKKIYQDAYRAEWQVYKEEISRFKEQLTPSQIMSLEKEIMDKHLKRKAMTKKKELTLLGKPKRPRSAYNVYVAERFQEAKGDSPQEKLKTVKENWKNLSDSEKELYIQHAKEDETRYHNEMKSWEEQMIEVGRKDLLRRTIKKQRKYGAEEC

- binding [1]: binds
- binding [2]: no binding
Substance: 35S-labeled HA-VHL wild-type, in vitro translated (from UniProt P40337 1-213)

- binding [3]: binds
- binding [4]: binds
Substance: HA-VHL^R200W (Chuvash mutant), expressed in 786-O cells (from UniProt P40337 1-213)

- binding [5]: binds
Substance: 35S-labeled VHL Y98H (type 2A mutant), in vitro translated (from UniProt P40337 1-213)

- binding [5]: binds
- binding [6]: binds
Substance: 35S-labeled VHL R200W (Chuvash polycythemia mutant), in vitro translated (from UniProt P40337 1-213)

- binding [7]: binds
Substance: purified GST-VHL (from UniProt P40337 1-213)
